The list shows a part of the results.
The sequences below were run against T1, OsWOX13 (Oryza sativa, UniProt Q5QMM3 1-267) (assay: protein-binding microarray (RPBM); PBS, 2% BSA, 51.3 ng/ul salmon testes DNA, 50 uM zinc acetate, 200 nM TF, 25 C, 1 h; high values mean tight binding). Conditions: protein: recombinant; tags: N-terminal polyhistidine and DsRed monomer fusion (pET32a); label: CyDye5-dUTP incorporated in the synthesized complementary strand; 3' TTTTT single-stranded linker to array surface; dsDNA, one strand shown.
T1 sequence: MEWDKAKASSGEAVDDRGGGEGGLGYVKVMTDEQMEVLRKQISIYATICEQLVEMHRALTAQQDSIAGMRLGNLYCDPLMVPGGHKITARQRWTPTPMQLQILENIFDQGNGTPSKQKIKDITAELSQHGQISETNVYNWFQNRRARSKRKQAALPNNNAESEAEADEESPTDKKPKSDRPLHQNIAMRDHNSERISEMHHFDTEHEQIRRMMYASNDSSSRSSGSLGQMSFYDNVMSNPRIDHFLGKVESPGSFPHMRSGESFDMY
How it was run: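 The binding signal is fluorescence intensity per array feature (arbitrary units). Readings came from an Axon 4000B scanner after a washed, 2% BSA-blocked, double-stranded custom Agilent array had been incubated for 1 h at 25 °C with 200 nM protein and 50 µM zinc acetate. The protein was a Ni–NTA-purified transcription factor fused N-terminally to polyhistidine and DsRed, expressed in E. coli BL21-CodonPlus.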

Sequence	binding signal
TGAAATTGGAGATGATGTGACTGAAAAGTTGTGTGTGTATCGGAGTCACCTAGTGCAG	20800 fluorescence intensity (a.u.)
GCTCTTAATTTAATTATGCTCATTTCAGGAATGTTTCAAACGGAGTCACCTAGTGCAG	19600 fluorescence intensity (a.u.)
CAAGATTGTAGTTAATAAATTTAGACGCTAACGATTATTACGGAGTCACCTAGTGCAG	4730 fluorescence intensity (a.u.)
AGTAAACTGAATAGTATTCAGCCGAATAAATATTGTACATCGGAGTCACCTAGTGCAG	3640 fluorescence intensity (a.u.)
CATAATTAATCTTCTCTTTGAAGAAGTGTAGCTGTGAATTCGGAGTCACCTAGTGCAG	24200 fluorescence intensity (a.u.)
TCCCTGTCATTCCATCGTTTGTTCCATCCCATGGACCGGCCGGAGTCACCTAGTGCAG	3950 fluorescence intensity (a.u.)
GAAACTAATCACCTATACTATCGGAGAACCTAATTTAACCCGGAGTCACCTAGTGCAG	3660 fluorescence intensity (a.u.)
TTAATACAAATTTATTTCCCATAATCAAGGAGGCGATATCCGGAGTCACCTAGTGCAG	8060 fluorescence intensity (a.u.)
TTCAACTCGAGATTGAAAACTTTCAAATCTAGATTTGAAACGGAGTCACCTAGTGCAG	3250 fluorescence intensity (a.u.)
CAGGAATTGAAATGTAAAACAGAGGATTGCAAAACACAGGCGGAGTCACCTAGTGCAG	3630 fluorescence intensity (a.u.)
AACTGATAGATGCTCAAGAAGTTAACTTTAAAGGTTCAAGCGGAGTCACCTAGTGCAG	17900 fluorescence intensity (a.u.)
CCTCCCACCAACTGAGCTTGATTGAAGGCGGTTCATAAACCGGAGTCACCTAGTGCAG	12600 fluorescence intensity (a.u.)
TGCATCTTTCTGTTTAAATCATGTTATCATCGATGCAGTTCGGAGTCACCTAGTGCAG	4130 fluorescence intensity (a.u.)
TTAAATTAATAGCTCTGTTCCCTGTGGCTTTATATAAACACGGAGTCACCTAGTGCAG	5260 fluorescence intensity (a.u.)
ATTGTTCATACCCATAATTGGCAGATGTGCTGTTGCATCACGGAGTCACCTAGTGCAG	6710 fluorescence intensity (a.u.)
TGGGACTGATTAACAAGATAACTGAAACTATGTATTTATGCGGAGTCACCTAGTGCAG	11500 fluorescence intensity (a.u.)
CAGCCAAGACATCATCAATCTAATGCATGCATCATGCATGCGGAGTCACCTAGTGCAG	3930 fluorescence intensity (a.u.)
CACCCTACTAATTAATCCCCATCATGTAGATACATATCCACGGAGTCACCTAGTGCAG	10200 fluorescence intensity (a.u.)
AAAGATTGCACTCAAATAAATTAAGAAATCTCTTTTGTGACGGAGTCACCTAGTGCAG	11900 fluorescence intensity (a.u.)
ACATGATTTCAATTTCACAGTGGCTAACTACTCAACATGCCGGAGTCACCTAGTGCAG	25700 fluorescence intensity (a.u.)
GATGAAATGATGATGATGATACAGCTGCCGCTGCGTGCTCCGGAGTCACCTAGTGCAG	4710 fluorescence intensity (a.u.)
AATCCTAATTATAAGATTTAAGACCTTTCTCTTCACTTCACGGAGTCACCTAGTGCAG	9800 fluorescence intensity (a.u.)
AGGAGATTAGTCTAATTAACAAGTGCAGATTCCCTAGCATCGGAGTCACCTAGTGCAG	27600 fluorescence intensity (a.u.)
GAAATTATAACATTGTAATTTACTATGAGTTACAAAGTAACGGAGTCACCTAGTGCAG	13900 fluorescence intensity (a.u.)
CTATAATAATTGATATTGTCTCGGATTATCTACTTAAATACGGAGTCACCTAGTGCAG	8550 fluorescence intensity (a.u.)
ATGGAGAGAGGTGTAATTGGCATTCACTTCTAAAGGGTCACGGAGTCACCTAGTGCAG	4850 fluorescence intensity (a.u.)
CATGACCGAAATTTTAGGTCTAAATTAAAATAATCAAGCCCGGAGTCACCTAGTGCAG	8680 fluorescence intensity (a.u.)

Sequence	binding signal
TGCAATAAATTATAGATGACTGAACATTTACACTCTACAGCGGAGTCACCTAGTGCAG	15300 fluorescence intensity (a.u.)
GTATAAATTTTCCAGAAATTTGGTGTATTCCATGTATTTCCGGAGTCACCTAGTGCAG	3960 fluorescence intensity (a.u.)
TGAATCTATTAAGCCTAATTAATCCATCATTAGTAAATGTCGGAGTCACCTAGTGCAG	8280 fluorescence intensity (a.u.)
ACGTGACAAGTTAATTCCTGAAGAAATTTCTGAATGAACCCGGAGTCACCTAGTGCAG	10100 fluorescence intensity (a.u.)
CCTGACTGGGAAATCATGTGCATAACATTGGTTTGGGCCTCGGAGTCACCTAGTGCAG	48400 fluorescence intensity (a.u.)
CGACCATAAACCTCAATCACTGTTAGCCATCCATCTGCACCGGAGTCACCTAGTGCAG	5890 fluorescence intensity (a.u.)
TATAATAATAAATTGAACAGTTAGCTCTAGTCCAAATTCACGGAGTCACCTAGTGCAG	8050 fluorescence intensity (a.u.)
TTGATATGGTGATTTGGACTCGAATGATAGGAGTGCTGGTCGGAGTCACCTAGTGCAG	11700 fluorescence intensity (a.u.)
AGTGTCAATCTTAAGTGTAATGAACACCCTGCACATCTGGCGGAGTCACCTAGTGCAG	8620 fluorescence intensity (a.u.)
TACAGTGTAATTACACTACGATTATACTATAATTACATCTCGGAGTCACCTAGTGCAG	14300 fluorescence intensity (a.u.)
TGGAATTGAAAGTTGAAACCATGCACCACTAGTCTCTCTCCGGAGTCACCTAGTGCAG	11500 fluorescence intensity (a.u.)
GTAACTGATATGACACGCCAAAACTTTACCACCCTATCCACGGAGTCACCTAGTGCAG	9160 fluorescence intensity (a.u.)
GTTGATATATTCAGCAATTAACTGCAATACTGACATTATCCGGAGTCACCTAGTGCAG	4630 fluorescence intensity (a.u.)
ATTAATCTATAGCCAATCTAATAGCTCATCCATACAATAGCGGAGTCACCTAGTGCAG	3390 fluorescence intensity (a.u.)
ACCCAGGCTTTGATTGCGATGATAAACCGAGCTCGCAGCACGGAGTCACCTAGTGCAG	13800 fluorescence intensity (a.u.)
ATTAATAATAGAATAGATGGCTCGAATACACCGGATTGTTCGGAGTCACCTAGTGCAG	6000 fluorescence intensity (a.u.)
CTTTTGACTGACGGGTGGGACCAAATTTACGGGCCCACAGCGGAGTCACCTAGTGCAG	10400 fluorescence intensity (a.u.)
TAGACTAATCATGAATCAATTAGGCTCAATAGATTCGTCTCGGAGTCACCTAGTGCAG	30800 fluorescence intensity (a.u.)
TATCTATCAAATCCAAACAGCTACTAAATTAAATATATCCCGGAGTCACCTAGTGCAG	3460 fluorescence intensity (a.u.)
ATATATATATATATATATATTACTAGTTAACGTACTTAGTCGGAGTCACCTAGTGCAG	15700 fluorescence intensity (a.u.)
TCCGTAGTTGATTAGTACTAGTTCGACCAGTAGTTTCGCCCGGAGTCACCTAGTGCAG	34900 fluorescence intensity (a.u.)
AAATATAATAAATTTAATGTTAACATATTTTACACGTAAGCGGAGTCACCTAGTGCAG	8420 fluorescence intensity (a.u.)
CGAGATTAGTTTAGTTGCTATCTTGTTTGTTCTCCCTTTGCGGAGTCACCTAGTGCAG	6430 fluorescence intensity (a.u.)
TATTATAAATTTCTAAATTACATTATGATTTTAGTGTATTCGGAGTCACCTAGTGCAG	9930 fluorescence intensity (a.u.)
TATTTGCGGTACCAAGTGATTGACACTCCAGGGATCCTTGCGGAGTCACCTAGTGCAG	11900 fluorescence intensity (a.u.)
ACATTAATTAATTAGAAGAATTAACATATACAAACAAAATCGGAGTCACCTAGTGCAG	13200 fluorescence intensity (a.u.)
CTTACGTGTAAATTGAAATTACATTGTAATTTACATTTGACGGAGTCACCTAGTGCAG	34200 fluorescence intensity (a.u.)
